The text below walks through data of the supplement of paper PMC9446081.

The whole screen tested about 39,000 compounds, of which about 220 (0.56%) showed activity. The list shows a part of the results.
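Also: static incubation at 37 °C against the wild-type strain, values averaged over two biological replicates.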

The test system of the assay is Escherichia coli K-12 BW25113. As to the kind of experiment: relative growth (OD600 normalised to plate interquartile mean) (fraction); higher = less growth inhibition, active = 0.2 or less. The note with it: 50 µM; LB; incubation time: overnight (16-24 h).
Take `C[C@@H]1CN([C@H](C)CO)C(=O)CCCn2nncc2CO[C@@H]1CN(C)S(=O)(=O)c1ccccc1C#N`: the relative growth was inactive: 1.03.

Turning to `C[C@@H]1CN([C@H](C)CO)C(=O)c2cc(NC(=O)Nc3ccc4c(c3)OCO4)ccc2O[C@@H](C)CCCCO[C@H]1CN(C)S(=O)(=O)c1ccccc1`, the relative growth is inactive: 1.02.

Regarding `C[C@H](CO)N1C[C@H](C)[C@@H](CN(C)S(C)(=O)=O)Oc2ncc(C#Cc3cccnc3)cc2C1=O`, the relative growth is inactive: 0.967.

As for `COc1ccc(S(=O)(=O)N[C@@H]2C=C[C@@H](CC(=O)NCCc3ccncc3)O[C@H]2CO)cc1`, the relative growth is inactive: 0.991.

Turning to `C[C@@H]1CN([C@H](C)CO)C(=O)c2c(c3ccccc3n2C)-c2ccccc2CO[C@@H]1CN(C)Cc1ccc(O)cc1`, the relative growth was inactive: 1.04.

For the molecule `COc1ccc(S(=O)(=O)Nc2ccc3c(c2)C(=O)N([C@@H](C)CO)C[C@H](C)[C@@H](CN(C)S(=O)(=O)c2ccc(OC)cc2)O3)cc1`, the relative growth is inactive: 1.03.

As for `C[C@@H]1CCCCO[C@H](CN(C)C(=O)Nc2ccc(F)cc2)[C@H](C)CN([C@H](C)CO)C(=O)c2cc(NS(=O)(=O)c3ccccc3)ccc2O1`, the relative growth was inactive: 1.02.

As to `C[C@H]1CN([C@@H](C)CO)C(=O)c2cc(NC(=O)C3CC3)ccc2O[C@@H]1CN(C)S(=O)(=O)c1cccs1`, the relative growth is inactive: 1.01.

As to `C[C@@H]1CN([C@@H](C)CO)C(=O)c2cc(NS(=O)(=O)c3ccc(Cl)cc3)ccc2O[C@H]1CN(C)Cc1ccc(Cl)c(Cl)c1`, the relative growth was inactive: 1.02.

On to `CN1C(=O)c2cc(NC(=O)c3cnccn3)ccc2OC[C@@H]2O[C@H](CC(=O)N[C@H]3CCN(Cc4ccccc4)C3)CC[C@@H]21`, for which the relative growth is inactive: 0.974.

Take `O=C(NCCO)c1cc(C(=O)NCCO)cc(C(=O)NCCO)c1`: the relative growth is inactive: 0.981.

Turning to `COc1ccc(S(=O)(=O)Nc2ccc3c(c2)CC(=O)N([C@H](C)CO)C[C@H](C)[C@@H](CN(C)Cc2ccc(Cl)c(Cl)c2)O3)cc1`, the relative growth was inactive: 0.987.

In the case of `COc1ccc2c3c([nH]c2c1)[C@@H](CO)N(C[C@]13CN(Cc2nccs2)C1)S(=O)(=O)c1ccc(cc1)C`, the relative growth was inactive: 1.02.

Take `C[C@@H]1CN([C@H](C)CO)C(=O)c2cccc(NC(=O)c3nc4ccccc4s3)c2O[C@@H]1CN(C)Cc1ccc(-c2ccccc2)cc1`: the relative growth was inactive: 0.953.

As to `O=C1C[C@@H](O)[C@@H](O)c2c(O)cccc21`, the relative growth was inactive: 1.

`O=C(C[C@@H]1C=C[C@H](NC(=O)c2cccnc2)[C@@H](CO)O1)NCCN1CCCCC1`: the relative growth is inactive: 0.962.

`C[C@H](CO)N1C[C@H](C)[C@@H](CN(C)S(=O)(=O)c2cn(C)cn2)Oc2ccc(NC(=O)Nc3ccccc3)cc2C1=O`: the relative growth was inactive: 1.

For `C[C@H]1CN([C@@H](C)CO)S(=O)(=O)c2ccc(-c3ccncc3)cc2O[C@@H]1CN(C)Cc1ccc(Oc2ccccc2)cc1`, the relative growth is inactive: 1.03.

Regarding `C[C@@H]1CN([C@H](C)CO)C(=O)c2cccc(NC(=O)c3nc4ccccc4s3)c2O[C@H]1CN(C)CC1CCCCC1`, the relative growth is inactive: 0.968.

Take `CC(C)N1C[C@@H](CN(C)Cc2ccc(Cl)cc2)Oc2c(cccc2-c2nnc(-c3ccncc3)o2)C1=O`: the relative growth is inactive: 1.

Consider `CCCC[C@H](C)C[C@H](O)/C=C/[C@H]1[C@H](O)CC(=O)[C@@H]1CCCC/C=C/C(=O)O`, for which the relative growth was inactive: 1.01.

With `C[C@@H]1CCCCO[C@H](CN(C)C(=O)Nc2cccc3ccccc23)[C@@H](C)CN([C@H](C)CO)C(=O)c2cc(NC(=O)Nc3ccc(C(F)(F)F)cc3)ccc2O1`, the relative growth is inactive: 0.999.

For the molecule `C[C@@H]1CN([C@@H](C)CO)C(=O)c2cc(NC(=O)c3ccncc3)ccc2O[C@@H](C)CCCCO[C@@H]1CN(C)C(=O)Nc1cccc2ccccc12`, the relative growth was inactive: 0.989.

Take `CCS(=O)(=O)Nc1ccc2c(c1)C(=O)N(C)[C@H]1CC[C@@H](CC(=O)NCc3ccc(OC)cc3)O[C@H]1CO2`: the relative growth is inactive: 1.03.

Regarding `CO[C@@H]1CN(C)C(=O)c2ccc(NS(=O)(=O)c3ccccc3)cc2OC[C@H](C)N(C(=O)NC(C)C)C[C@H]1C`, the relative growth was inactive: 0.999.

For `CCCOc1ccc2nc(NC(=O)OC)[nH]c2c1`, the relative growth was inactive: 0.991.

As to `C[C@H]1CCCCO[C@H](CN(C)Cc2ccc(Cl)c(Cl)c2)[C@@H](C)CN([C@@H](C)CO)C(=O)c2cc(NC(=O)Nc3ccccc3)ccc2O1`, the relative growth was inactive: 1.

Take `c1ccc(Oc2ccncc2)cc1`: the relative growth was inactive: 0.883.

On to `C[C@@H]1CCCCO[C@@H](CN(C)C(=O)Nc2ccc(F)cc2)[C@H](C)CN([C@@H](C)CO)C(=O)c2cc(NS(=O)(=O)c3ccc(F)cc3)ccc2O1`, for which the relative growth is inactive: 1.03.

With `CC(=O)N1CCS(=O)(=O)[C@H]2CCN(S(=O)(=O)Cc3ccccc3)CC[C@@H]21`, the relative growth was inactive: 1.01.

Turning to `COC(=O)[C@@H]1C[C@H](C#N)N[C@@H]1c1ccco1`, the relative growth was inactive: 0.989.

With `Cc1ccc(C(=O)O)c(=O)[nH]1`, the relative growth was inactive: 1.05.

For the molecule `Cc1noc(C)c1S(=O)(=O)Nc1ccc2c(c1)CC(=O)N([C@@H](C)CO)C[C@H](C)[C@H](CN(C)S(=O)(=O)c1ccc(F)cc1)O2`, the relative growth is inactive: 1.01.

Take `C[C@H]1CC/C=C\[C@H]2O[C@@]34C=CCN(Cn5nnc6ccccc65)C(=O)[C@H]3N(CCCCCCO)C(=O)[C@@H]4[C@@H]2C(=O)O1`: the relative growth was inactive: 0.983.

As for `C[C@H](CO)N1C[C@H](C)[C@@H](CN(C)C(=O)Nc2ccc(C(F)(F)F)cc2)OCc2cn(nn2)CCCC1=O`, the relative growth is inactive: 0.961.

`COc1ccc(S(=O)(=O)N(C)C[C@@H]2Oc3c(NS(=O)(=O)c4ccc(F)cc4)cccc3C(=O)N([C@@H](C)CO)C[C@@H]2C)cc1`: the relative growth was inactive: 1.

As for `C[N+](C)(C)CCOP(=O)([O-])OP(=O)(O)OCC1OC(n2ccc(N)nc2=O)C(O)C1O` (stereo unspecified), the relative growth is inactive: 0.967.

As for `C[C@@H]1CN([C@H](C)CO)S(=O)(=O)c2ccc(-c3ccc(C#N)cc3)cc2O[C@@H]1CN(C)C(=O)CN(C)C`, the relative growth is inactive: 0.998.

In the case of `C[C@H]1CN([C@@H](C)CO)C(=O)c2cccc(NC(=O)Nc3cccc4ccccc34)c2O[C@@H]1CN(C)S(=O)(=O)c1ccc(Cl)cc1`, the relative growth is inactive: 1.03.

Consider `COc1cccc(S(=O)(=O)N(C)C[C@@H]2OCc3cn(nn3)CCCC(=O)N([C@H](C)CO)C[C@@H]2C)c1`, for which the relative growth is inactive: 0.993.

Regarding `Cc1noc(C)c1S(=O)(=O)Nc1cccc2c1O[C@H](CN(C)C(=O)NC(C)C)[C@H](C)CN([C@@H](C)CO)C2=O`, the relative growth is inactive: 0.98.

In the case of `COc1ccc(NC(=O)N(C)C[C@@H]2OCCCC[C@H](C)Oc3ccc(NS(=O)(=O)c4c(C)noc4C)cc3C(=O)N([C@H](C)CO)C[C@@H]2C)cc1`, the relative growth is inactive: 1.04.

As to `O=C(CCCCCCC(=O)N/N=C/[C@H](O)[C@@H](O)[C@H](O)[C@H](O)CO[C@H]1O[C@H](CO)[C@H](O)[C@H](O)[C@H]1O)NO`, the relative growth was inactive: 1.01.

For the molecule `CC(C)NC(=O)N(C)C[C@H]1Oc2ccc(NS(=O)(=O)c3cn(C)cn3)cc2CC(=O)N([C@H](C)CO)C[C@H]1C`, the relative growth is inactive: 0.997.

As to `CCCC[C@@H](O)c1ccccc1`, the relative growth was inactive: 0.992.

`Cc1noc(C)c1NC(=O)N[C@H]1CC[C@@H](CC(=O)N2CCN(C)CC2)O[C@H]1CO`: the relative growth was inactive: 1.03.

Turning to `COc1ccc(S(=O)(=O)N(C)C[C@H]2Oc3c(NC(=O)Nc4cccc5ccccc45)cccc3C(=O)N([C@@H](C)CO)C[C@H]2C)cc1`, the relative growth was inactive: 1.01.

For `CN1CCN(C(=O)C[C@H]2CC[C@@H]3[C@H](COc4ccc(NC(=O)c5ccc(F)c(F)c5)cc4C(=O)N3C)O2)CC1`, the relative growth is inactive: 0.993.

As to `Cc1noc(C)c1S(=O)(=O)N(C)C[C@H]1Oc2ccc(NC(=O)Nc3ccccc3)cc2CC(=O)N([C@@H](C)CO)C[C@@H]1C`, the relative growth was inactive: 0.924.

With `CN(C)CCCNC(=O)C[C@H]1CC[C@H](NS(=O)(=O)c2ccccc2)[C@@H](CO)O1`, the relative growth is inactive: 0.989.

`C[C@@H]1CN([C@@H](C)CO)C(=O)c2cc(NC(=O)Nc3ccccc3)ccc2O[C@@H](C)CCCCO[C@H]1CN(C)S(=O)(=O)c1ccccc1F`: the relative growth was inactive: 1.02.

For the molecule `O=C(O)C(O)C(O)C(OC1OC(CO)C(O)C(O)C1O)C(O)CO` (stereo unspecified), the relative growth was inactive: 0.9.

On to `C[C@@H]1CN([C@H](C)CO)C(=O)c2cc(N(C)C)ccc2O[C@@H](C)CCCCO[C@@H]1CN(C)C(=O)Nc1cccc2ccccc12`, for which the relative growth was inactive: 1.01.

As to `C[C@H]1CCCCO[C@@H](CN(C)Cc2ccncc2)[C@@H](C)CN([C@@H](C)CO)C(=O)c2cc(NC(=O)Cc3ccccc3)ccc2O1`, the relative growth is inactive: 0.984.

Turning to `C[C@H]1CCCCO[C@H](CN(C)C(=O)c2ccccc2)[C@@H](C)CN([C@@H](C)CO)C(=O)c2cc(NS(=O)(=O)c3cccs3)ccc2O1`, the relative growth is inactive: 1.01.

As to `CC1CCc2cc(F)cc3c(=O)c(C(=O)O)cn1c23` (stereo unspecified), the relative growth is active: 0.0455.

In the case of `Cc1noc(C)c1S(=O)(=O)N(C)C[C@H]1Oc2ccc(N(C)C)cc2CC(=O)N([C@@H](C)CO)C[C@@H]1C`, the relative growth was inactive: 0.998.

For the molecule `COc1ccc(S(=O)(=O)N(C)C[C@@H]2Oc3ccc(NC(=O)Nc4cccc5ccccc45)cc3C(=O)N([C@H](C)CO)C[C@H]2C)cc1`, the relative growth was inactive: 1.03.

For `COc1ccc(-c2cnc3c(c2)C(=O)N([C@H](C)CO)C[C@H](C)[C@@H](CN(C)C(=O)C2CCOCC2)O3)cc1`, the relative growth is inactive: 0.977.

As for `C[C@@H]1CN([C@@H](C)CO)C(=O)c2cc(NC(=O)Nc3ccc(F)cc3)ccc2O[C@@H](C)CCCCO[C@@H]1CN(C)C(=O)C1CCCCC1`, the relative growth was inactive: 1.01.

For the molecule `O=C(C[C@H]1C=C[C@H](NC(=O)C2CC2)[C@H](CO)O1)NCCCN1CCOCC1`, the relative growth was inactive: 1.01.
